# Test results taken from the supplement of paper PMC8728848.
# The list shows a part of the results.
# B1: LSECtin (Homo sapiens), Q6UXB4 (protein)
# chain: MDTTRYSKWGGSSEEVPGGPWGRWVHWSRRPLFLALAVLVTTVLWAVILSILLSKASTERAALLDGHDLLRTNASKQTAALGALKEEVGDCHSCCSGTQAQLQTTRAELGEAQAKLMEQESALRELRERVTQGLAEAGRGREDVRTELFRALEAVRLQNNSCEPCPTSWLSFEGSCYFFSVPKTTWAAAQDHCADASAHLVIVGGLDEQGFLTRNTRGRGYWLGLRAVRHLGKVQGYQWVDGVSLSFSHWNQGEPNDAWGRENCVMMLHTGLWNDAPCDSEKDGWICEKRHNC
# What was measured:
# Assay in all cases: glycan array binding signal (z-score within array); higher = stronger binding
# Settings in all cases: glycan notation: IUPAC condensed, linker removed
# [1] = molecular target: Neu5Ac(a2-3)[GalNAc(b1-4)]Gal(b1-4)GlcNAc
# How it was run: (§1)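 Columns mapping to the same glycan were averaged after glycan names were converted to IUPAC-condensed notation. The data come from 3228 arrays in the Consortium for Functional Glycomics database, limited to those with an available protein sequence. Binding is reported as a within-array Z-score averaged across arrays of one protein sequence and across linkers.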
# [2] = molecular target: Neu5Ac(a2-3)[GalNAc(b1-4)]Gal(b1-4)GlcNAc(b1-3)GalNAc
# How it was run: as §1
# [3] = molecular target: Neu5Ac(a2-3)[Neu5Ac(a2-6)]GalNAc
# How it was run: as §1
# Neu5Ac(a2-6)Gal = molecular target: Neu5Ac(a2-6)Gal
# How it was run: as §1
# [4] = molecular target: Neu5Ac(a2-6)Gal(b1-3)GlcNAc(b1-3)[Gal(b1-4)GlcNAc(b1-6)]Gal(b1-4)Glc
# How it was run: as §1
# Neu5Ac(a2-6)Gal(b1-4)Glc = molecular target: Neu5Ac(a2-6)Gal(b1-4)Glc
# How it was run: as §1
# [5] = molecular target: Neu5Ac(a2-6)Gal(b1-4)GlcNAc
# How it was run: as §1
# [6] = molecular target: Neu5Ac(a2-6)Gal(b1-4)GlcNAc(b1-2)Man
# How it was run: as §1
# [7] = molecular target: Neu5Ac(a2-6)Gal(b1-4)GlcNAc(b1-2)Man(a1-3)Man(b1-4)GlcNAc(b1-4)GlcNAc
# How it was run: as §1
# [8] = molecular target: Neu5Ac(a2-6)Gal(b1-4)GlcNAc(b1-2)Man(a1-3)[Gal(b1-4)GlcNAc(b1-2)Man(a1-6)]Man(b1-4)GlcNAc(b1-4)GlcNAc
# How it was run: as §1
# [9] = molecular target: Neu5Ac(a2-6)Gal(b1-4)GlcNAc(b1-2)Man(a1-3)[GlcNAc(b1-2)Man(a1-6)]Man(b1-4)GlcNAc(b1-4)GlcNAc
# How it was run: as §1
# [10] = molecular target: Neu5Ac(a2-6)Gal(b1-4)GlcNAc(b1-2)Man(a1-3)[GlcNAc(b1-2)Man(b1-4)GlcNAc(b1-2)Man(a1-6)]Man(b1-4)GlcNAc(b1-4)GlcNAc
# How it was run: as §1
# [11] = molecular target: Neu5Ac(a2-6)Gal(b1-4)GlcNAc(b1-2)Man(a1-3)[GlcNAc(b1-4)][Neu5Ac(a2-6)Gal(b1-4)GlcNAc(b1-2)Man(a1-6)]Man(b1-4)GlcNAc(b1-4)GlcNAc
# How it was run: as §1
# [12] = molecular target: Neu5Ac(a2-6)Gal(b1-4)GlcNAc(b1-2)Man(a1-3)[Man(a1-6)]Man(b1-4)GlcNAc(b1-4)GlcNAc
# How it was run: as §1
# [13] = molecular target: Neu5Ac(a2-6)Gal(b1-4)GlcNAc(b1-2)Man(a1-3)[Neu5Ac(a2-3)Gal(b1-4)GlcNAc(b1-2)Man(a1-6)]Man(b1-4)GlcNAc(b1-4)GlcNAc
# How it was run: as §1
# [14] = molecular target: Neu5Ac(a2-6)Gal(b1-4)GlcNAc(b1-2)Man(a1-3)[Neu5Ac(a2-6)Gal(b1-4)GlcNAc(b1-2)Man(a1-6)]Man(b1-4)GlcNAc(b1-4)GlcNAc
# How it was run: as §1
# [15] = molecular target: Neu5Ac(a2-6)Gal(b1-4)GlcNAc(b1-2)Man(a1-3)[Neu5Ac(a2-6)Gal(b1-4)GlcNAc(b1-2)Man(a1-6)]Man(b1-4)GlcNAc(b1-4)[Fuc(a1-6)]GlcNAc
# How it was run: as §1
# [16] = molecular target: Neu5Ac(a2-6)Gal(b1-4)GlcNAc(b1-2)Man(a1-6)Man(b1-4)GlcNAc(b1-4)GlcNAc
# How it was run: as §1
# [17] = molecular target: Neu5Ac(a2-6)Gal(b1-4)GlcNAc(b1-2)Man(a1-6)[Gal(b1-4)GlcNAc(b1-2)Man(a1-3)]Man(b1-4)GlcNAc(b1-4)GlcNAc
# How it was run: as §1
# [18] = molecular target: Neu5Ac(a2-6)Gal(b1-4)GlcNAc(b1-2)Man(a1-6)[GlcNAc(b1-2)Man(a1-3)]Man(b1-4)GlcNAc(b1-4)GlcNAc
# How it was run: as §1
# [19] = molecular target: Neu5Ac(a2-6)Gal(b1-4)GlcNAc(b1-2)Man(a1-6)[Man(a1-3)]Man(b1-4)GlcNAc(b1-4)GlcNAc
# How it was run: as §1
# [20] = molecular target: Neu5Ac(a2-6)Gal(b1-4)GlcNAc(b1-2)[Neu5Ac(a2-6)Gal(b1-4)GlcNAc(b1-4)]Man(a1-3)[GlcNAc(b1-4)][Neu5Ac(a2-6)Gal(b1-4)GlcNAc(b1-2)[Neu5Ac(a2-6)Gal(b1-4)GlcNAc(b1-6)]Man(a1-6)]Man(b1-4)GlcNAc(b1-4)GlcNAc
# How it was run: as §1
# [21] = molecular target: Neu5Ac(a2-6)Gal(b1-4)GlcNAc(b1-2)[Neu5Ac(a2-6)Gal(b1-4)GlcNAc(b1-4)]Man(a1-3)[GlcNAc(b1-4)][Neu5Ac(a2-6)Gal(b1-4)GlcNAc(b1-4)Man(a1-6)]Man(b1-4)GlcNAc(b1-4)GlcNAc
# How it was run: as §1
# [22] = molecular target: Neu5Ac(a2-6)Gal(b1-4)GlcNAc(b1-2)[Neu5Ac(a2-6)Gal(b1-4)GlcNAc(b1-6)]Man(a1-6)[Neu5Ac(a2-6)Gal(b1-4)GlcNAc(b1-2)Man(a1-3)][GlcNAc(b1-4)]Man(b1-4)GlcNAc(b1-4)GlcNAc
# How it was run: as §1
# [23] = molecular target: Neu5Ac(a2-6)Gal(b1-4)GlcNAc(b1-3)Gal(b1-3)GlcNAc
# How it was run: as §1
# [24] = molecular target: Neu5Ac(a2-6)Gal(b1-4)GlcNAc(b1-3)Gal(b1-4)GlcNAc
# How it was run: as §1
# [25] = molecular target: Neu5Ac(a2-6)Gal(b1-4)GlcNAc(b1-3)Gal(b1-4)GlcNAc(b1-2)Man(a1-3)[Neu5Ac(a2-6)Gal(b1-4)GlcNAc(b1-3)Gal(b1-4)GlcNAc(b1-2)Man(a1-6)]GalNAc
# How it was run: as §1
# [26] = molecular target: Neu5Ac(a2-6)Gal(b1-4)GlcNAc(b1-3)Gal(b1-4)GlcNAc(b1-3)Gal(b1-4)GlcNAc
# How it was run: as §1
# [27] = molecular target: Neu5Ac(a2-6)Gal(b1-4)GlcNAc(b1-3)Gal(b1-4)GlcNAc(b1-3)Gal(b1-4)GlcNAc(b1-2)Man(a1-3)[Neu5Ac(a2-6)Gal(b1-4)GlcNAc(b1-3)Gal(b1-4)GlcNAc(b1-3)Gal(b1-4)GlcNAc(b1-2)Man(a1-6)]GalNAc
# How it was run: as §1
# [28] = molecular target: Neu5Ac(a2-6)Gal(b1-4)GlcNAc(b1-3)Gal(b1-4)GlcNAc(b1-3)GalNAc
# How it was run: as §1
# [29] = molecular target: Neu5Ac(a2-6)Gal(b1-4)GlcNAc(b1-3)Gal(b1-4)GlcNAc(b1-3)[Neu5Ac(a2-6)Gal(b1-4)GlcNAc(b1-3)Gal(b1-4)GlcNAc(b1-6)]GalNAc
# How it was run: as §1
# [30] = molecular target: Neu5Ac(a2-6)Gal(b1-4)GlcNAc(b1-3)Gal(b1-4)GlcNAc(b1-6)[Gal(b1-3)]GalNAc
# How it was run: as §1
# [31] = molecular target: Neu5Ac(a2-6)Gal(b1-4)GlcNAc(b1-3)Gal(b1-4)[Fuc(a1-3)]GlcNAc(b1-3)Gal(b1-4)[Fuc(a1-3)]GlcNAc
# How it was run: as §1
# [32] = molecular target: Neu5Ac(a2-6)Gal(b1-4)GlcNAc(b1-3)GalNAc
# How it was run: as §1
# [33] = molecular target: Neu5Ac(a2-6)Gal(b1-4)GlcNAc(b1-3)[Neu5Ac(a2-6)Gal(b1-4)GlcNAc(b1-6)]GalNAc
# How it was run: as §1
# [34] = molecular target: Neu5Ac(a2-6)Gal(b1-4)GlcNAc(b1-6)GalNAc
# How it was run: as §1
# [35] = molecular target: Neu5Ac(a2-6)Gal(b1-4)GlcNAc(b1-6)[Gal(b1-3)GlcNAc(b1-3)]Gal(b1-4)Glc
# How it was run: as §1
binder,measurement,setting,value
B1,glycan array binding signal (z-score),[1],-0.026
same,glycan array binding signal (z-score),[2],-0.132
same,glycan array binding signal (z-score),[3],-0.179
same,glycan array binding signal (z-score),Neu5Ac(a2-6)Gal,0.061
same,glycan array binding signal (z-score),[4],-0.133
same,glycan array binding signal (z-score),Neu5Ac(a2-6)Gal(b1-4)Glc,-0.157
same,glycan array binding signal (z-score),[5],-0.132
same,glycan array binding signal (z-score),[6],-0.134
same,glycan array binding signal (z-score),[7],-0.188
same,glycan array binding signal (z-score),[8],-0.19
same,glycan array binding signal (z-score),[9],0.942
same,glycan array binding signal (z-score),[10],-0.402
same,glycan array binding signal (z-score),[11],-0.147
same,glycan array binding signal (z-score),[12],-0.181
same,glycan array binding signal (z-score),[13],-0.138
same,glycan array binding signal (z-score),[14],-0.091
same,glycan array binding signal (z-score),[15],-0.132
same,glycan array binding signal (z-score),[16],-0.13
same,glycan array binding signal (z-score),[17],0.054
same,glycan array binding signal (z-score),[18],5.06
same,glycan array binding signal (z-score),[19],-0.185
same,glycan array binding signal (z-score),[20],-0.133
same,glycan array binding signal (z-score),[21],-0.129
same,glycan array binding signal (z-score),[22],-0.134
same,glycan array binding signal (z-score),[23],-0.164
same,glycan array binding signal (z-score),[24],-0.139
same,glycan array binding signal (z-score),[25],-0.13
same,glycan array binding signal (z-score),[26],-0.25
same,glycan array binding signal (z-score),[27],-0.135
same,glycan array binding signal (z-score),[28],-0.134
same,glycan array binding signal (z-score),[29],-0.129
same,glycan array binding signal (z-score),[30],-0.133
same,glycan array binding signal (z-score),[31],-0.187
same,glycan array binding signal (z-score),[32],-0.169
same,glycan array binding signal (z-score),[33],-0.133
same,glycan array binding signal (z-score),[34],-0.099
same,glycan array binding signal (z-score),[35],-0.127
